Article PMC4336329 (PLoS ONE, 2015)
In all, about 310,000 compounds went through this assay and about 2,200 (0.71%) showed an effect of 50% or more. The effect is printed as a negative number. The list shows a part of the results.

target: human ether-à-go-go-related gene (hERG) potassium channel (human, UniProt Q12809); experiment: primary screen, population patch clamp on CHO cells stably expressing hERG
Sequence (Q12809 whole entry, looked up): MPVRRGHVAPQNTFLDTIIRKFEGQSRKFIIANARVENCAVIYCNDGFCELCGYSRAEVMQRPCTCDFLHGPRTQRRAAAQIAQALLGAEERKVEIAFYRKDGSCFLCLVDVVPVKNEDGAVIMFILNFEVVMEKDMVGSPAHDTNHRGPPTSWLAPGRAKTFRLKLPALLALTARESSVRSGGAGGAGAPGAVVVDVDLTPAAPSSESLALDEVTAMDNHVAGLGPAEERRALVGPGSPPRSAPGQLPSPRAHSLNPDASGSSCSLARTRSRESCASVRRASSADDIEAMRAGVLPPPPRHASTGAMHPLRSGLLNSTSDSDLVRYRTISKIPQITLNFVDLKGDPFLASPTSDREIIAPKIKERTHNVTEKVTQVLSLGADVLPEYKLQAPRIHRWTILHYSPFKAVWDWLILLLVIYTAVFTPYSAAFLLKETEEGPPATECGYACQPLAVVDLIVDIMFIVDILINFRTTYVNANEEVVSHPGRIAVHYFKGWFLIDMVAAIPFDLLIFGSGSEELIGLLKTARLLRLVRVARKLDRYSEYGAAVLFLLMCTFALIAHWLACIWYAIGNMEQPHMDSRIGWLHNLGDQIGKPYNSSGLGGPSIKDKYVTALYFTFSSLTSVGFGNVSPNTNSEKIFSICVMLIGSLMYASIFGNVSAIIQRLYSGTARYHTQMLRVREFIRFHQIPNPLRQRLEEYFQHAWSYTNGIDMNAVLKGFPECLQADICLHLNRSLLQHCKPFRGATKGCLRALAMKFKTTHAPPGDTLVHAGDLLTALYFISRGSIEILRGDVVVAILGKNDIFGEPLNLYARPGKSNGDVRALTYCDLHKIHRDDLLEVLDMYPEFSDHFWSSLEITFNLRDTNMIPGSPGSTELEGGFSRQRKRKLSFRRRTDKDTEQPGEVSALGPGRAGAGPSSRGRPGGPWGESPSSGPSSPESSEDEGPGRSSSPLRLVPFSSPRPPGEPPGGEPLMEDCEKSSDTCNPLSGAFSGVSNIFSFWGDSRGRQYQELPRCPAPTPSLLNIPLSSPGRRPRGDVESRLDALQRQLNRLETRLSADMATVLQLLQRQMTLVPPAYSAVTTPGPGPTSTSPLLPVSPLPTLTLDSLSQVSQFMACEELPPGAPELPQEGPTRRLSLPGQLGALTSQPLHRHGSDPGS

Compound | hERG current change (%, negative = inhibition) at 1uM [%]
CS(=O)(=O)N1CCN(CC2CC3C=CC2C3)CC1.O=C(O)C(=O)O (stereo not drawn) | 3.8
O=C(Oc1cc(-c2ccccc2)no1)c1ccc(F)cc1 | -5
O=C(Nc1ccc(NC(=O)C2CC2)nc1)c1cccs1 | 14.4
Cn1cc(C(=O)c2ccc(Cl)cc2Cl)cc1C(=O)N/N=C(\N)COc1ccccc1 | 11.9
COC(=O)c1[nH]c2ccc(F)cc2c1NC(=O)C1=COCCO1 | -2.73
CC(=O)CC(=O)Nc1ccc(Nc2ccccc2)cc1 | 6.47
Cn1c(NCc2ccco2)nc2c1c(=O)n(Cc1ccc(Br)cc1)c(=O)n2C | 7.54
Cc1nn(C)c(Cl)c1C(=O)NC(C(=O)O)c1ccccc1 (stereo not drawn) | 7.73
COCCCNC(=O)c1ccc2c(=O)n(Cc3ccc(OC)cc3)c(=O)[nH]c2c1 | 6.77
CCOc1cccc(SCc2noc(C(=O)NCCOC)c2C(=O)O)c1 | 8.41
CCOc1ccc(S(=O)(=O)NCCC(=O)OCC(=O)c2ccc(NC(C)=O)cc2)cc1 | 14.1
N#Cc1nc(COc2cccc(Cl)c2)oc1NCc1ccco1 | -1.39
O=C(O)CSc1nc(-c2ccccc2)nc2c1CCCC2 | 10.2
COc1ccc(C2c3[nH]c4ccccc4c3CCN2C(=O)c2cc3ncccn3n2)c(F)c1 (stereo not drawn) | 13.5
c1ccc(CN(Cc2ccccc2)c2c3c(nc4ncnn24)CCC3)cc1 | -5.54
CC(=O)N1CCN(c2ccc(Oc3ccc([N+](=O)[O-])c(C(F)(F)F)c3)cc2)CC1 | 9.14
COC(=O)c1cc(OC)c(OC)cc1NC(=O)c1c(-c2ccccc2)noc1C | 1.27
O=S(=O)(NCc1cccs1)c1ccccc1Cl | 6.3
CCN1C(=O)c2cccc3c(S(=O)(=O)NCCCN4CCOCC4)ccc1c23 | 4.39
CCCOc1ccc(C(=O)NCC(c2cccs2)N(C)C)cc1 (stereo not drawn) | -1.71
COc1ccccc1/C=C/C=N/NC(=O)c1ccccn1 | -2.5
CCCCN(CCCC)C(=S)NC(=O)c1ccccc1Cl | 10.9

Compound | hERG current change (%, negative = inhibition) at 1uM [%]
Cc1ccc(C(=O)Cn2nnc3c(sc4nc5c(c(-c6ccccc6)c43)CCC5)c2=O)cc1 | 13.6
CCCCN(CC(=O)NC1CCCC1)C(=O)C(=O)Nc1ccc2c(c1)OCCO2 | 8.29
COCCn1nnnc1C(c1ccc(Cl)cc1)N1CCN(C(=O)c2ccco2)CC1.Cl (stereo not drawn) | 4.61
COc1ccccc1[N+](=O)[O-] | 15.7
CCOC(=O)C(C)Oc1cccc2c(=O)n(CC(=O)N3CCCc4ccccc43)ccc12 (stereo not drawn) | 15.8
Cc1ccc(C2CN(CCC(N)=O)C(=O)CO2)cc1 (stereo not drawn) | 5.47
Cc1cc(S(=O)(=O)Nc2cc(C)c(O)c(C)c2)c(C)s1 | 9.93
CCN(CC)S(=O)(=O)c1ccc(N2CCN(C)CC2)c(NC(=O)Nc2ccc(C)cc2)c1 | 12.6
O=[N+]([O-])c1ccc(C(=Nc2cccc3ccccc23)N2CCOCC2)cc1 | 3.71
CCOC(=O)CN1C(=O)CC(c2ccc([N+](=O)[O-])cc2)C1=O (stereo not drawn) | 6.7
COc1ccc2ccc3c(c2c1)N=CC1(O3)N(C)c2ccccc2C1(C)C (stereo not drawn) | 5.08
Cc1cc(/C=C2\SC(=S)NC2=O)c(C)n1-c1cccc(O)c1 | 8.34
COCCNc1cc(NCCOC)c([N+](=O)[O-])cc1[N+](=O)[O-] | 11
COc1ccc(NC(=O)Cc2c[nH]c3ccccc23)cc1S(=O)(=O)N1CCCCC1 | 4.42
CC1(C)N([O-])C(c2ccccc2)=C[N+](=O)C1(C)C | -0.744
CCCNC(=O)c1cc(S(=O)(=O)N2CCCCC2)ccc1N1CCOCC1 | -9.91
CSC(C1CCCC1)n1nnc2ccccc21 (stereo not drawn) | 16.4
COc1cccc(NC(=O)C/C(C)=N/NC(=O)c2ccccc2Cl)c1 | 8.32
C=CCn1c(O)c(C(C)=NCc2ccco2)c(=O)[nH]c1=O | -9.55
O=[N+]([O-])c1cc(C(F)(F)F)ccc1N1CCN(S(=O)(=O)c2ccc3c(c2)CCCC3)CC1 | 1.7
COc1ccc(N2CCN(C(=O)CSc3ccccc3)CC2)cc1 | 12.7
Cc1ccc([N+](=O)[O-])cc1S(=O)(=O)Nc1ccc(-c2ccc(N3CCOCC3)nn2)cc1 | 1.4

Compound | hERG current change (%, negative = inhibition) at 1uM [%]
COCCn1c(SCc2cccc([N+](=O)[O-])c2)nc2ccccc2c1=O | -4.67
C=CCn1c(Cc2ccc(OCC)cc2)nnc1SCC(N)=O | 14
CCC(CC)NC(=O)Nc1ccc(F)cc1F | 5.72
CCN(c1nc(N)c(C(=O)N=C(N)N)nc1Cl)C(C)C | -5.52
Clc1cccc(Cl)c1-c1noc(-c2ccno2)n1 | 13.1
C/C(CC(=O)Nc1ccccn1)=N\NC(=O)Cc1cccc2ccccc12 | 11.7
O=C(NNC(=O)c1ccccc1C(=O)O)c1ccc(-c2ccccc2)cc1 | -1.61
O=C(NC(=S)Nc1ccc(Oc2ccc(Cl)cc2)cc1)c1ccccc1 | 5.53
Cc1ccc2ccc(C(Nc3ccccn3)c3ccccc3)c(O)c2n1 (stereo not drawn) | 4.83
CC(=O)N1CCN(c2ccc(NC(=O)c3ccc(Cl)c([N+](=O)[O-])c3)cc2)CC1 | 5.32
O=C(CCNS(=O)(=O)c1ccc(Cl)cc1)N1CCC2(O)CCCCC2C1 (stereo not drawn) | 11.7
CC(CN1CCN(Cc2ccccc2)CC1)c1ccccc1.O=C(O)C(=O)O (stereo not drawn) | 11.3
COc1cccc(-n2c(Cc3cc(=O)[nH]c(=O)[nH]3)nnc2SCC(=O)N2CCC(C)CC2)c1 | 15.9
Cc1cc(C)cc(NC(=O)C2CCN(S(=O)(=O)c3ccc4c(c3)NC(=O)C(C)S4)CC2)c1 (stereo not drawn) | 10.2
O=C(Nc1ccc(F)cc1)N1CCCC(c2nc3c(nnn3Cc3ccccc3Cl)c(=O)[nH]2)C1 (stereo not drawn) | 13.4
Cc1ccc(N2C(=O)c3cccc4cccc(c34)C2=O)cc1 | 16.5
Cc1ccccc1Cn1c(C)nc2ccccc21 | 10.4
CCOC(=O)C1CCN(c2c(N3CCCCCC3)c(=O)c2=O)CC1 | 8.04
CCCc1c(C)nc(N2CCN(c3cccc(OC)c3)CC2)[nH]c1=O | 18.7
Cc1nnc(C)c2c(C)n(C(C)c3ccccc3)c(C)c12 (stereo not drawn) | -1.28
CCOC(=O)COc1ccc2c(=O)c(-c3ccc(OC)c(OC)c3)c(C(=O)OCC)oc2c1 | 10.6
Cc1ccc(C(=O)N/C(=C\c2cccnc2)c2nc3ccccc3[nH]2)cc1 | 2.21

Compound | hERG current change (%, negative = inhibition) at 1uM [%]
O=C1CCCN1c1cc(Cl)cc(Cl)c1 | -1.03
O=C(COC(=O)/C=C/c1ccc(S(=O)(=O)N2CCOCC2)cc1)NC1CCCCCCC1 | 15.2
CCCCN(CC)CCNC(=O)Cn1cc2c(n1)-c1c(oc(C(=O)N3CCCC3)c1C)CC2 | 3.58
Cc1ccc(NC(=O)CSc2nnc(-c3ccncc3)n2C)cc1S(=O)(=O)N1CCOCC1 | -1.81
Cc1cc(C)n(/N=C/c2cc([N+](=O)[O-])ccc2O)c(=O)c1 | 14.9
CC(=O)Nc1cccc(NC(=S)Nc2ccc(F)c(Cl)c2)c1 | 8.49
COc1ccc(NC(=S)Nc2ccc(S(N)(=O)=O)cc2)c(C)c1 | 14.6
Cc1nc([N+](=O)[O-])nn1C12CC3CC(CC(Br)(C3)C1)C2 | 5.03
COc1ccc(NC2=NCC(=O)N2c2ccccc2F)cc1.Cl | 11.8
CC(=O)Nc1ccc(SCC(=O)c2ccc(Br)s2)cc1 | 16.4
Cc1ncoc1C(=O)N1CCc2c([nH]c3ccccc23)C1C(C)(C)C (stereo not drawn) | 0.456
CC(OC(=O)/C=C/c1cccc(F)c1)C(=O)NC1CCCCC1C (stereo not drawn) | 9.21
CC(NC(=O)c1ccco1)C(=O)N1CCN(S(=O)(=O)c2ccccc2C#N)CC1 (stereo not drawn) | 3.03
CCC1CCCCN1CCCNC(=O)C1CCC(=O)N1Cc1ccc(C)cc1 (stereo not drawn) | 13.4
CN(CCNC(=O)c1cn(C)c2ccc(S(=O)(=O)N3CCCC3)cc2c1=O)CCc1ccccc1 | -1.68
O=c1[nH]c2cc3c(cc2cc1C(c1nnnn1C1CCCCC1)N1CCSCC1)OCCO3 (stereo not drawn) | 3.34
Cc1nc2cc(C(F)(F)F)ccc2n1C1CCN(Cc2nnnn2CCc2ccccc2)CC1 | -5.2
CC1CC(=O)N(CC(=O)Nc2ccc(F)cc2F)c2ccccc2S1(=O)=O (stereo not drawn) | 0.457
COc1ccc(/C=C/C(=O)NCC(=O)N/N=C/c2cccs2)cc1 | 4.91
N#Cc1ccc(C(=O)Nc2nnc(-c3cccs3)o2)cc1 | 12.2
CCOC(=O)c1c(C)[nH]c(C2=NNC(=NC(C)COC)SC2)c1C (stereo not drawn) | 11.7
